Assay results as given in PubChem BioAssay AID1240 (Sanford-Burnham Center for Chemical Genomics, 2008).
Screen size: about 50,000 compounds; about 800 (1.6%) showed an effect of 50% or more. This is one part of the list.

Target: Bcl-2-like protein 10 (Homo sapiens) (UniProt Q9HD36)
Assay: Phenotype converters, Bcl-B/TR3 peptide binding displacement, primary biochemical FP (AID 1240);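 note: 0% = Bcl-B with tracer peptide and DMSO and 100% = tracer peptide lacking Bcl-B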
Conditions: GST-Bcl-B / FITC-TR3 peptide fluorescence polarization; stronger effect = higher value; compound at 3.75 mg/L

Chain of UniProt Q9HD36 (Q9HD36 whole entry, looked up): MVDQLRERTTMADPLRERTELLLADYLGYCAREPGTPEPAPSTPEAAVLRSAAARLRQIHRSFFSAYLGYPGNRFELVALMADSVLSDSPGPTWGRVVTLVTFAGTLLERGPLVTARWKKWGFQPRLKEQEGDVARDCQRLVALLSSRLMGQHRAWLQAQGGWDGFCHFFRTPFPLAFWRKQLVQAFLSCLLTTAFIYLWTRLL

**Q.** Which displacement does the source give for `COc1ccc2c(c1OC)C(=O)OC2Nc1ccc(F)c(Cl)c1` (configuration not stated) here?
**A.** The displacement was -3.3%.

**Q.** Which displacement does the source give for `Cc1ccc(C(=O)O/N=C(\N)c2cccnc2)cc1[N+](=O)[O-]` here?
**A.** Its displacement is 2.4%.

**Q.** For `CCCC1=NN2C(=N)/C(=C/c3ccc(-c4ccc([N+](=O)[O-])cc4C)o3)C(=O)N=C2S1`, which displacement is on record?
**A.** The displacement was 140%.

**Q.** With `O=c1c2c(nc3cc(-c4ccccc4)[nH]n13)CCS2` as the compound, how does the displacement read?
**A.** The displacement was -12.6%.

**Q.** With `N#C/C(=C/c1ccc(I)o1)c1ccc(Cl)cc1` as the compound, how does the displacement read?
**A.** Its displacement is -24.1%.

**Q.** Which displacement does the source give for `O=C1NC(=O)N(c2ccccc2Cl)C(=O)C1=Cc1ccc2c(c1)OCO2` here?
**A.** The displacement was 7.3%.

**Q.** Which displacement does the source give for `CCN(CC)c1ccc(/C=C2/SC(=S)N(NC(=O)c3ccc(Cl)cc3)C2=O)cc1` here?
**A.** The displacement was -114%.

**Q.** With `COc1ccc(S(=O)(=O)N(CCc2ccccc2)CC(=O)Nc2ccccc2OC)cc1` as the compound, how does the displacement read?
**A.** The displacement was 11.2%.

**Q.** `Cc1cc2c(cc1C)CN(c1cccc(C(=O)NN)c1)C2` was tested. Which displacement did it give?
**A.** The displacement was -6%.

**Q.** For `O=C1/C(=C\c2ccc(O)cc2)SC(=S)N1c1ccc(F)cc1`, which displacement is on record?
**A.** The displacement was -12.5%.

**Q.** Which displacement does the source give for `COc1ccc(CN2C(=O)C3C(c4ccc(Cl)cc4)OC4(C(=O)c5ccccc5C4=O)C3C2=O)cc1` (configuration not stated) here?
**A.** The displacement was -37.6%.

**Q.** How did the displacement turn out when `CCN1C(=O)c2cccc3c(NC(=O)c4ccc(Cl)s4)ccc1c23` was run?
**A.** The displacement was 11.6%.

**Q.** `O=C(COc1ccccc1)Nc1ccc(O)c(-c2nc3ccccc3s2)c1` was tested. Which displacement did it give?
**A.** The displacement was -0.4%.

**Q.** With `CN1CCN(S(=O)(=O)c2ccc(C(C)(C)C)cc2)CC1` as the compound, how does the displacement read?
**A.** Its displacement is 0.6%.

**Q.** With `C/C(=C\C(=O)c1ccc(C)cc1)Nc1ccc(I)cc1` as the compound, how does the displacement read?
**A.** Its displacement is 7.2%.

**Q.** With `NC1=NC(=O)/C(=C\c2ccc(-c3ccc([N+](=O)[O-])cc3)o2)S1` as the compound, how does the displacement read?
**A.** Its displacement is 3.2%.

**Q.** `COc1ccc(C2=NN(C(=O)CCC(=O)O)C(c3ccccc3OC)C2)cc1` (configuration not stated) was tested. Which displacement did it give?
**A.** The displacement was 11.9%.

**Q.** How did the displacement turn out when `Cc1cc(=O)oc2c(C=Nc3c(C)n(C)n(-c4ccccc4)c3=O)c(O)ccc12` was run?
**A.** The displacement was 38.5%.

**Q.** How did the displacement turn out when `CN(C)c1ccc(C(=O)C(O)c2ccc(C(C)(C)C)cc2)cc1` (configuration not stated) was run?
**A.** Its displacement is 4.7%.

**Q.** For `COc1ccc(NC(=O)CSc2nc3ccccc3o2)c(OC)c1`, which displacement is on record?
**A.** The displacement was 13.5%.

**Q.** Which displacement does the source give for `Cc1ccc(N(CCCCN2C(=O)c3ccccc3C2=O)C(=O)c2cccc(C(F)(F)F)c2)cc1` here?
**A.** Its displacement is 12.5%.

**Q.** `O=[N+]([O-])c1cccc(CSc2nc3ccccc3[nH]2)c1` was tested. Which displacement did it give?
**A.** The displacement was -3.6%.

**Q.** How did the displacement turn out when `CCOC(=O)c1c(N)sc(NC(=O)c2ccc(C)cc2C)c1C` was run?
**A.** The displacement was -9.6%.

**Q.** `N#C/C(=C\c1ccc(Cl)cc1)c1nc(C2CC2)cs1` was tested. Which displacement did it give?
**A.** Its displacement is -2.2%.

**Q.** How did the displacement turn out when `Cc1nc2cc(NCc3cc4ccccc4[nH]3)ccc2n1C` was run?
**A.** The displacement was -1.6%.

**Q.** How did the displacement turn out when `Cc1ccc(C)c(-c2nc3ccccc3c(C(=O)O)c2C)c1` was run?
**A.** The displacement was 0%.

**Q.** `Cc1ccc(-c2noc(COc3ccc(C(C)(C)C)cc3)n2)cc1` was tested. Which displacement did it give?
**A.** The displacement was 1.1%.

**Q.** Which displacement does the source give for `O=C(Nc1cc(F)c(F)cc1Cl)NC(c1ccccc1)c1ccccc1` here?
**A.** Its displacement is -16.6%.

**Q.** How did the displacement turn out when `O=C(/C=C(\O)c1ccc(Br)cc1)C(F)(F)F` was run?
**A.** Its displacement is -6.5%.

**Q.** How did the displacement turn out when `O=S(=O)(c1cc(Cl)cc(Cl)c1O)c1cc(Cl)cc(Cl)c1O` was run?
**A.** The displacement was 18.6%.

**Q.** For `COC(OC)C12c3ccccc3C(c3ccccc31)C1C(=O)N(c3cccc(C)c3C)C(=O)C12` (configuration not stated), which displacement is on record?
**A.** The displacement was -3.6%.

**Q.** `O=C(NCC1CCCO1)c1ccc(S(=O)(=O)N2CCCCC2)cc1` (configuration not stated) was tested. Which displacement did it give?
**A.** Its displacement is -4.5%.

**Q.** For `C=CC[n+]1c(/C=C/c2ccc(N(C)C)cc2)ccc2ccccc21`, which displacement is on record?
**A.** Its displacement is -2.5%.

**Q.** How did the displacement turn out when `COc1cc(-c2nc3sc4c(c3c(=O)[nH]2)CCCC4)ccc1OCc1cccc(F)c1` was run?
**A.** Its displacement is -16.2%.

**Q.** Which displacement does the source give for `COc1ccc(NC(=O)COc2cc(C)c(Cl)c(C)c2)c(OC)c1` here?
**A.** Its displacement is -3.9%.

**Q.** Which displacement does the source give for `CCN1C(=O)/C(=C\c2cc(Cl)c(OCc3ccccc3F)c(OC)c2)SC1=S` here?
**A.** The displacement was 3.4%.

**Q.** Which displacement does the source give for `Cc1nn(C(=O)c2nn(C)cc2[N+](=O)[O-])c(C)c1Br` here?
**A.** The displacement was -19.5%.

**Q.** How did the displacement turn out when `COc1ccc(C2CC(=O)C3=C(C2)Nc2ccccc2NC3c2cccc(Br)c2)cc1OC` (configuration not stated) was run?
**A.** The displacement was -3%.

**Q.** With `COCCNC(=O)C(=O)Nc1ccc(C)cc1` as the compound, how does the displacement read?
**A.** Its displacement is 6.7%.

**Q.** How did the displacement turn out when `CCC(C(=O)Nc1ccccc1I)c1ccccc1` (configuration not stated) was run?
**A.** Its displacement is 7.8%.

**Q.** Which displacement does the source give for `COc1ccc(Br)cc1C(=O)Nc1ccc(O)c(-c2nc3cc(C)c(C)cc3o2)c1` here?
**A.** Its displacement is 3.8%.

**Q.** Which displacement does the source give for `COc1ccc(C2(O)CN(c3ccccc3)C3=[N+]2CCCS3)cc1` (configuration not stated) here?
**A.** Its displacement is 10.1%.

**Q.** `O=C(COC(=O)c1ccccc1C(F)(F)F)c1ccc(Br)cc1` was tested. Which displacement did it give?
**A.** The displacement was -12.2%.

**Q.** With `O=C(NNC(=O)c1ccccc1[N+](=O)[O-])c1ccc(NC(=O)c2ccccc2[N+](=O)[O-])cc1` as the compound, how does the displacement read?
**A.** Its displacement is 3.9%.

**Q.** With `CCc1cc(C)cc(OCCOc2cccc(/C=c3\sc4nc5ccccc5n4c3=O)c2)c1` as the compound, how does the displacement read?
**A.** Its displacement is 14.6%.

**Q.** Which displacement does the source give for `Cc1nc(C(F)(F)F)nc(Nc2ccc(Br)cc2)c1C#N` here?
**A.** The displacement was -3.5%.

**Q.** Which displacement does the source give for `Cc1ccc(C(=O)Nc2ccc(C(=O)/C=C/c3cccnc3)cc2)cc1` here?
**A.** Its displacement is 3.8%.

**Q.** Which displacement does the source give for `O=C(/C=C/c1cccc([N+](=O)[O-])c1)NCCN1CCOCC1` here?
**A.** Its displacement is 9.7%.

**Q.** With `Cc1ccc(/C=C2\SC(=N)N(c3ccc(F)cc3)C2=O)cc1` as the compound, how does the displacement read?
**A.** The displacement was 6.7%.

**Q.** `O=C(O)c1cc(NC(=O)c2cccc(Oc3ccc([N+](=O)[O-])cc3)c2)cc(C(=O)O)c1` was tested. Which displacement did it give?
**A.** Its displacement is 5.6%.

**Q.** For `CCOC(=O)Cn1nnc2ccccc21`, which displacement is on record?
**A.** Its displacement is -6%.

**Q.** With `COc1ccc(/C=C2\CCc3cc(OC)ccc3C2=O)cc1` as the compound, how does the displacement read?
**A.** Its displacement is -4.8%.

**Q.** With `O=C(c1cccs1)N1N=C(c2ccccc2)CC1c1ccccc1` (configuration not stated) as the compound, how does the displacement read?
**A.** The displacement was -4.3%.

**Q.** Which displacement does the source give for `CCc1ccc(N2C(=O)NC(=O)/C(=C\c3cc(Cl)c(O)c(Cl)c3)C2=O)cc1` here?
**A.** Its displacement is -10.8%.

**Q.** How did the displacement turn out when `O=C(O)/C=C/c1c(F)c(F)c(F)c(F)c1F` was run?
**A.** The displacement was 0.7%.

**Q.** Which displacement does the source give for `Clc1ccc(CN2CCN(C3CCN(Cc4ccccc4)CC3)CC2)cc1` here?
**A.** The displacement was -8%.

**Q.** With `COc1ccc(/C=N/N=C2c3ccccc3-c3ccccc32)c(OC)c1` as the compound, how does the displacement read?
**A.** Its displacement is -4.4%.

**Q.** Which displacement does the source give for `O=C1/C(=C/c2cccs2)SC(=S)N1c1cccc(O)c1` here?
**A.** The displacement was -2.6%.

**Q.** With `CS(=O)(=O)N(Cc1ccc(C(=O)N[C@@H]2C[C@H]3CC[C@@H]2C3)cc1)c1ccccc1` as the compound, how does the displacement read?
**A.** The displacement was 12.9%.

**Q.** Which displacement does the source give for `COc1ccccc1NC(=O)CSc1nc(C)cc(C)n1` here?
**A.** The displacement was 9.8%.

**Q.** For `C=CCN1C(=O)/C(=C\c2ccc(-c3ccc([N+](=O)[O-])cc3C)o2)C(=O)NC1=S`, which displacement is on record?
**A.** Its displacement is 14.8%.

**Q.** Which displacement does the source give for `CCOc1cc(/C=N/Nc2nc(N3CCOCC3)nc(N3CCOCC3)n2)ccc1OCc1ccccc1` here?
**A.** The displacement was 2.1%.

**Q.** With `O=C(Nc1ccc2c(c1)OCO2)c1cccc(F)c1` as the compound, how does the displacement read?
**A.** The displacement was -3.5%.

**Q.** Which displacement does the source give for `CN1CCN(c2ccc([N+](=O)[O-])c(NCCOc3ccc(C(C)(C)C)cc3)c2)CC1` here?
**A.** The displacement was 7.3%.

**Q.** Which displacement does the source give for `CC(C)(C)NC(=O)c1cc(-c2ccc(Cl)cc2)nc2ccccc12` here?
**A.** Its displacement is 15.9%.

**Q.** `Cc1ccccc1NC(=O)CCCN1C(=O)/C(=C/c2cccc3c2OCO3)SC1=S` was tested. Which displacement did it give?
**A.** The displacement was 94.9%.

**Q.** How did the displacement turn out when `C=CC(=O)NC(NC(=O)C=C)c1ccc(Br)cc1` was run?
**A.** Its displacement is -5.1%.
